Measurements taken from patent US20110117082A1 (SHANGHAI FUDAN ZHANGJIANG BIO PHARMACEUTICAL, published 2011).

Tests used:
[1] = biological target: T1, tumor necrosis factor α (TNFα) (UniProt P01375 part only); assay: SPR, Biacore3000, receptor:Fc amine-coupled to CM5 chip, ligand in flow, 1:1 Langmuir fit
T1 construct: Bought from R&D Company; also called TNFa

[2] = biological target: T2, LT28-171 (lymphotoxin) (UniProt P01374 62-205); assay: as above
T2 construct: range 28-171; these probably count on the mature protein (171 residues), not on the precursor
T2 sequence (looked up): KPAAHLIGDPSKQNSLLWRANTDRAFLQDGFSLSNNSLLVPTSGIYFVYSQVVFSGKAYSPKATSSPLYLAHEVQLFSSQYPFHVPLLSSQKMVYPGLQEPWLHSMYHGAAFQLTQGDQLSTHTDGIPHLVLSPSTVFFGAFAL

[3] = biological target: T1, tumor necrosis factor α (TNFα); assay: cell-based or functional assay
[4] = biological target: T2, LT28-171 (lymphotoxin); assay: cell-based or functional assay

T1 sequence (P01375 77-233 limits assumed): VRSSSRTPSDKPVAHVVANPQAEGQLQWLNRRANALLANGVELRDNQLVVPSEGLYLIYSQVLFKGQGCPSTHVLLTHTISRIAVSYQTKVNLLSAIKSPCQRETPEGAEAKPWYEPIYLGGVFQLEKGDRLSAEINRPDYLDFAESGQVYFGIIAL

B1: TNFRp75 (E92N, W89Y): Fc fusion protein (Fc fusion)
chain: LPAQVAFTPYAPEPGSTCRLREYYDQTAQMCCSKCSPGQHAKVFCTKTSDTVCDSCEDSTYTQLWNYVPNCLSCGSRCSSDQVETQACTREQNRICTCRPGWYCALSKQEGCRLCAPLRKCRPGFGVARPGTETSDVVCKPCAPGTFSNTTSSTDICRPHQICNVVAIPGNASMDAVCTSTSPTRSMAPGAVHLPQPVSTRSQHTQPTPEPSTAPSTSFLLPMGPSPPAEGSTGD[letters of human IgG1 Fc omitted]
B1 showed a Kd [1] of 0.133 nM, a koff [1] of 1.29e-06 s⁻¹ and a kon [1] of 9720 M⁻¹ s⁻¹. The Kd [2] was 0.0874 nM, the koff [2] was 1.64e-06 s⁻¹ and the kon [2] was 18800 M⁻¹ s⁻¹. For the same binder, the “EC50(ng/ml) of the neutralizing activity of the mutants (Example 9: against the cytotoxicity of TNFα)” value [3] was 5.04 ng/mL and the “EC50(ng/ml) of the neutralizing activity of the mutants against LT” value [4] was 3.74 ng/mL.
